± gives the standard deviation of the averaged measurements. Some of the results follow.

For the test, the system named is PfAP2-EXP AP2 domain (GST-tagged). Nature of the test: gcPBM binding intensity (ln(normalized median fluorescence intensity)); higher = stronger DNA binding. An outline of the steps: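 The binding buffer was 1× PBS containing 1% milk, 0.2 mg/ml BSA, 0.5% salmon testes DNA and 0.03% Triton X-100. In it, GST-tagged P. falciparum DNA-binding domains expressed in E. coli were applied for 1 h to an Agilent 4 × 180k array of primer-extended double-stranded 36-bp intergenic genomic probes plus negative controls. Binding intensity, read with Alexa488 anti-GST antibody and a 488 nm scan, is the highest Masliner-normalised natural-log median intensity across replicate spots of either probe orientation.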
Turning to “TAAAATTTATAAACTACACACATATAAATAGTAATA [CACACA_site7708]”, the “gcPBM binding intensity (ln)” value was 8.58 ± 0.31.
In the case of “TATATACATTGGTATACATGCATTCTCTTTCATACA [TGCATGCA_site734]”, the “gcPBM binding intensity (ln)” value came to 8.84 ± 0.39.
In the case of “TTAAACATATATTAAGCACACACAAACAAAAAAACA [CACACA_site8816]”, the “gcPBM binding intensity (ln)” value turned out to be 8.86 ± 0.56.
“TAATTAATCGATTTACGCACATGAACAAAAGCACAT [CACACA_negctrl_site1287]”: the “gcPBM binding intensity (ln)” value turned out to be 8.73 ± 0.2.
For the sequence “AACATATTTTTTTGTTGTACTTACAATTATAAGCAT [XGTACX_site3056]”, the “gcPBM binding intensity (ln)” value is 8.44 ± 0.31.
“TATACCAAATATATGGGTACACAAATATGTTTATTC [XGTACX_site8932]”: the “gcPBM binding intensity (ln)” value worked out at 8.49 ± 0.3.
In the case of “TATAAAGCAACTGAAACACACAAATTTTTTTTTTTT [CACACA_site3218]”, the “gcPBM binding intensity (ln)” value was 8.04 ± 0.46.
ATTATTTATTTATGTGTGCGCATGTGTGTAAATATT: the “gcPBM binding intensity (ln)” value worked out at 9.04 ± 0.33.
With “ACTATTTTCTTCAAAACATGCACCACATAAACATAA [TGCATGCA_site200]” the figure was 9.155 ± 0.007.
For the sequence “CCTTTTTTATTTACAACACACGTAAAGGTTCAAATA [CACACA_site1741]”, the “gcPBM binding intensity (ln)” value came to 8.73 ± 0.34.
As to “GTAAATATTAATAAAAGTACATATGTAGCATATGGA [XGTACX_site5219]”, the “gcPBM binding intensity (ln)” value worked out at 8.64 ± 0.31.
With “AAAAAACACAGACATACACACAAAAAGGTTATAAAT [CACACA_site4222]” the figure was 8.87 ± 0.51; with “ATATATATATATATGTGTACATATTTTTTTTTTTTT [XGTACX_site3425]”, 10.1 ± 0.32.
“AGAAAAAAAAAAAATGCACACATTTTCATTGTCAGT [CACACA_site1935]”: the “gcPBM binding intensity (ln)” value is 8.21 ± 0.33.
As for “TATATGTATTTATATACACACATATTCTTTTTACAC [CACACA_site8320]”, the “gcPBM binding intensity (ln)” value stood at 8.4 ± 0.4.
“TCCTTTTCATCTTGTAGTACGGAAATGTAGCTCCAA [XGTACX_site8563]”: the “gcPBM binding intensity (ln)” value was 8.66 ± 0.42.
“AATATTTTGAACAACAGTACTCTTTCTTTCTTTCTT [XGTACX_site7212]”: the “gcPBM binding intensity (ln)” value is 8.46 ± 0.53.
“TGTGTAAATATGTATACACACATATCTGATCAATAT [CACACA_site7507]”: the “gcPBM binding intensity (ln)” value came out at 8.46 ± 0.4.
Consider “TATATCTACTTAAAAAGTACGTAAATTATAAGCTAT [XGTACX_site6420]”, for which the “gcPBM binding intensity (ln)” value came to 8.38 ± 0.36.
Regarding AATATTGTTCACAAGGTGCTTTTTATTCATACTAAT, the “gcPBM binding intensity (ln)” value came out at 8.6 ± 0.32.
To “TATGTATAACTCAATGCATGCGAAGGACTATTATTT [TGCATGCA_site222]” belongs 9.25 ± 0.55; to “ACCTCACAAATGAATACACACAAACATATAGATTTA [CACACA_site6862]”, 8.64 ± 0.37; to “ATATATAAAATTATATGTACATATATCTATTTATAA [XGTACX_site3713]”, 8.29 ± 0.3.
As for “TTTAAAATTTCTTAATGTACGTAATAAAAAAAAAAA [XGTACX_site4037]”, the “gcPBM binding intensity (ln)” value was determined as 8.71 ± 0.38.
Turning to “GATTAAAACTTTAACTGTACATAATAATTATCAATC [XGTACX_site5938]”, the “gcPBM binding intensity (ln)” value was determined as 8.54 ± 0.46.
With “AATAATTATTTGTATAGTACAATATACAAAAGATGA [XGTACX_site4312]” the figure was 8.71 ± 0.38; with “AACTTTTTACAAACAGGTACGCATATATATATATAT [XGTACX_site5081]”, 10.1 ± 0.47; with “AAAATTTAAAAATGGACACACACAAAAAATAATACT [CACACA_site7972]”, 9.09 ± 0.44.
For “CATCCATTATTAATATGTACATATGTATATATATTA [XGTACX_site1318]”, the “gcPBM binding intensity (ln)” value is 8.61 ± 0.3.
With “CACATACACATACAAACACACATTATATATATATAT [CACACA_site8460]” the figure was 10 ± 0.38; with “TTTTTTTTTTTTTTTTTTTTTTTCTTTATTTTTTTT [CACACA_negctrl_site703]”, 7.95 ± 0.5.
As to “GAAAAAAAAAAAAGGGGTACATTTATTTTATCAATA [XGTACX_site8331]”, the “gcPBM binding intensity (ln)” value turned out to be 8.29 ± 0.26.
With “TATAAATATAGACACACACACACACCGAAGCGTAGC [CACACA_site6180]”, the “gcPBM binding intensity (ln)” value worked out at 8.69 ± 0.53.
“TCGTCACTTTAATATTGTACATATATATATATATAT [XGTACX_site8046]”: the “gcPBM binding intensity (ln)” value was found to be 10.3 ± 0.13.
For “AAAATTAATAAATAAACACACATATTTATATTTATA [CACACA_site7266]”, the “gcPBM binding intensity (ln)” value came out at 8.03 ± 0.41.
Turning to “GATATATATATTCACACACACATGGAAATATATATA [CACACA_site382]”, the “gcPBM binding intensity (ln)” value was 8.56 ± 0.28.
On to “ATATATATATGTGCCAGTACACATGTATACATTATA [XGTACX_site3899]”, for which the “gcPBM binding intensity (ln)” value is 9.59 ± 0.14.
With “CATATATAAAAAAACACACACATATTTATATTTATA [CACACA_site6682]” the figure was 8.43 ± 0.34; with “AAAAAAATTTATAAATATTTTATTAATATATTTACC [GTGCAC_negctrl_site690]”, 8.11 ± 0.27; with “CATATTTCTTACATTTGTACTTAATAAAATTAATCA [XGTACX_site7224]”, 8.41 ± 0.39.
As for “ACACAAAACAAAAAGGTGCTGTATAAATGGGTGTAT [GTGCAC_site9905]”, the “gcPBM binding intensity (ln)” value is 9.12 ± 0.42.
As for “TATCACATATTATGATGTACAAGGTTTCTGACTAAT [XGTACX_site2763]”, the “gcPBM binding intensity (ln)” value was determined as 8.39 ± 0.36.
Take “TTGTCTGACTAATTTTTTTCTGTTTGTACGTTCTTA [GTGCAC_negctrl_site602]”: the “gcPBM binding intensity (ln)” value came to 8.74 ± 0.49.
With “TTTTTATACAACTTATAATACATCTGAAAATATAAA [XGTACX_negctrl_site36]” the figure was 8.16 ± 0.42; with “ACAAAATAAATATGAACACACACATTTATGCCTTTA [CACACA_site8346]”, 8.35 ± 0.54.
For the sequence “ATAATTATACATATTACACACTCTCTTGATCTTTTT [CACACA_site3853]”, the “gcPBM binding intensity (ln)” value worked out at 8.64 ± 0.42.
Consider “ATTTCTTATTAAATTACACACAAAGTAAATAAATCT [CACACA_site3924]”, for which the “gcPBM binding intensity (ln)” value is 8.36 ± 0.33.
To “ATTTTAAATATGGAATGTACTTAAAAAAAATTTCAT [XGTACX_site5058]” belongs 8.26 ± 0.18.
“AATTAAATATTATAAACACACATATAGATTATTTTT [CACACA_site6538]”: the “gcPBM binding intensity (ln)” value was determined as 8.17 ± 0.49.
“TATAATAATATGGATTGTACATATATATTTAATTAA [XGTACX_site4327]”: the “gcPBM binding intensity (ln)” value turned out to be 8.18 ± 0.21.
For “AAATACATAACTTAAAATTTGTTCATATCTATACAT [TGCATGCA_negctrl_site249]”, the “gcPBM binding intensity (ln)” value was 8.45 ± 0.33.
To “TTGTTTTGGATTATCACACATATAATATATACTCAT [CACACA_site4780]” belongs 8.65 ± 0.35; to “TTTTCCTTTTTTTTTACATGCAGATATAGAAAGGTA [TGCATGCA_site106]”, 8.88 ± 0.19.
In the case of “GTAATTTTTTTCTATACACACATATCTATAATATAT [CACACA_site7284]”, the “gcPBM binding intensity (ln)” value turned out to be 8.77 ± 0.38.
Turning to “TACTTATAATTTCAATGTACATATATATAATATCAT [XGTACX_site2424]”, the “gcPBM binding intensity (ln)” value turned out to be 8.39 ± 0.37.
With “TTTTTATAAGCATAAAGTACAAATATTTTTTAGTTG [XGTACX_site4140]” the figure was 8.21 ± 0.38; with “TAAATCCGTTTGATGGGTACATACATACATACATAT [XGTACX_site8889]”, 8.44 ± 0.33.

These data come from the supplement of paper PMC11417369.
